{"source": "the RNAGym collection of RNA variant scans (doi:10.7554/elife.90254)", "parents": {"B1": {"name": "LINE1-mini (parent)", "chain": "GGCAGAGCUCAACACAGCGUGGCAAAGUGGCUGUGGCUAGACUGCC"}}, "note": "The source gives no read counts; variants with many changes may rest on few reads."}
{"variants_of": "B1", "experiment": "self-cleavage, relative activity (ratio to wild type); higher = more cleavage; in vitro, sequencing; the parent is a self-cleaving ribozyme"}
{"variant": "UGCAGAGCUCAACGCAGCGUGGCAAAGUGGCUCUGGCUAGCCCGCC", "self-cleavage": 0.01}
{"variant": "UGUAGAGCACAACACAGCGUGGCAAUUUAGCUGUGGCUAGACUGCC", "self-cleavage": 0.24}
{"variant": "UGGAGAGCUCAACCCAGUGUGGCAAAGUGGCUGUGGCGAGACUGCC", "self-cleavage": 0.01}
{"variant": "UGUGGAGCUGUACACAGCGUGGCAAAGUGGCUGUGGCUAGACUGCC", "self-cleavage": 0.03}
{"variant": "UGCAGAGCUCAACCCAGCGUGGCAGAGUCGUUGUCGCUAGACUGCC", "self-cleavage": 0.02}
{"variant": "UGCAGAGCUCAACACCGCGUAUCAAAGUGGCUGUGGCAAGACUGCC", "self-cleavage": 0.02}
{"variant": "CGCAGAGCUCAACACAGCGGCGCAAAGUGGCUGUGGCUAGACUGCC", "self-cleavage": 0.09}
{"variant": "UGCUAAGCUGAACACAGCGUGGCAAAGUGGCUGUGGCUAGCCUGCC", "self-cleavage": 0.02}
{"variant": "UGCAGAGCUCAACGCAGCGUGGCUAAGUGGCUGUGGCUAGACUGCC", "self-cleavage": 0.1}
{"variant": "UGCAGUGCUCUACACCGCGUGGCAAAGUGACUGUAGCUAGACUGCC", "self-cleavage": 0}
{"variant": "UGCAGAGCUCAACACAGCGUGGCACAUUGGCUGUUGCUAGACUGCC", "self-cleavage": 0.03}
{"variant": "UGCAGAGCUCGACACAGCGUCGCAAAGUGGCUGUGGCUCGACUGCC", "self-cleavage": 0.01}
{"variant": "UGCAGAGCUCAACCCACCGUGGCGAAGUGGCUGUGGCUAGACGGCC", "self-cleavage": 0}
{"variant": "UGCAGGGCUUAACACAGCGUGGCAAAGUGGCUGUGGCAAGACUGCC", "self-cleavage": 0.01}
{"variant": "UGCAGAGCUCAACACGGCGUGGCAGAGUGGCUGUGGCUAGACAGCC", "self-cleavage": 0.01}
{"variant": "UGCCGGGCGCAACACAGGGUGGGAAAGUGGCUGUGGCUAGACUGCC", "self-cleavage": 0.05}
{"variant": "UGCAGCGCUCAACACAUCGUGGAAAAGUGGCUGUGGCUAGACUGCC", "self-cleavage": 0.04}
{"variant": "UGAAGAGCUCAACACUGCGGGGCAAAGUGGCUGAGGCUAGACUGCC", "self-cleavage": 0.14}
{"variant": "UGCAGGGCUCAACAUAGCGUGGCAAAGUGGCUGGGGCUAGACUGCC", "self-cleavage": 0.08}
{"variant": "UGCAGGGCUCAACACAGCGUGGCAAAGUGGCUGUGGCCAGACUGCC", "self-cleavage": 0.02}
{"variant": "UGCAGAGCUCAACACAGCGUGGCAUAGUGGCUGUUGCUAGACUGCC", "self-cleavage": 0.07}
{"variant": "UGCAGAGCUCAACACAGCGUGGCAAAGUGGCUGUGGCUCAACUGCC", "self-cleavage": 0.02}
{"variant": "UGGAGAGCUCAAAACAGCGUGGCAAAGUGGCUGUGGAUAGACUGUC", "self-cleavage": 0.25}
{"variant": "UGCAGAGCUCAACGCGGCGUGGCUAAGUGGCUGUGGCUAGACUGCC", "self-cleavage": 0.11}
{"variant": "UGUAGAGCUUAACACAGCGUGGCAAAGCGGCUGUGGCUAGACUUCC", "self-cleavage": 0.24}
{"variant": "UGCAGCGCUCAACACAGCGUGGCAACGUGGCUAUGGCUAGACUGCC", "self-cleavage": 0.03}
{"variant": "UGCAGAGCUCAACACAGCGUGGCUAAGUGGCUGUGGCUAUACUGCU", "self-cleavage": 0.07}
{"variant": "UGCAGAGCUCAACACAGCGUGGCAAUGUGGCUGUGGCUUGACUGCC", "self-cleavage": 0.15}
{"variant": "UGCAGAGCUCAACACCGCGUGGGAAAGUGGCUGUGGCUAGACUGCC", "self-cleavage": 0.06}
{"variant": "UGCAGCGCUCGACACAGCGUGGCAGAGAGGCUGUGGCUACACUGCC", "self-cleavage": 0.01}
{"variant": "UGUAGAGCUCAACACAGCGUGGCAAAGUGGCUGUGGCUAGAUUGCC", "self-cleavage": 0.05}
{"variant": "UGCAGAGCUCAGCACAGCGUGGCAAAGUGGAUGUGGCUAUACUGCC", "self-cleavage": 0}
{"variant": "CGCAGAGCUCAACACAGCGUGGCAAAGCGGCUGUAGCUAGGCUGCC", "self-cleavage": 0.01}
{"variant": "CGCAGAGCUCAACACAGCGUGGCAAAGUGGCUGUGGCGACACUGCU", "self-cleavage": 0}
{"variant": "UGCAGAGCUCAACACCGUGUGGCAAAGUGGUUGUGGCAAGACUGCA", "self-cleavage": 0.01}
{"variant": "UGCAGAGAUCAACUCAGCGAGGCAAAGUGGCUGUGGCUAGACUGCC", "self-cleavage": 0.04}
{"variant": "UGCAGAGCUCAACACAGCGUGGCAGCGUGGAUAUGGCUAGACUGCC", "self-cleavage": 0.03}
{"variant": "UGCUGAGCUCAACACAGCGUGGCAUAGUGGCUGUGGCUAGACUGCC", "self-cleavage": 0.18}
{"variant": "UGCAGAGCUCAACACAGCGUGGCAGAGAGGCCGUGGCUAGACUGCC", "self-cleavage": 0.01}
{"variant": "UGCAGAGCUCAUCACAGCGUGGCAACGUGGCUGUGGCUAGACUGCA", "self-cleavage": 0.18}
{"variant": "UGCAGAGCUCCAGACAGCGUGGCAAAGUGGUUGUGGCUACACUGUC", "self-cleavage": 0.01}
{"variant": "CGCAGAGCUCAACACAGCGUGGCAAAGAUGCUGUGGCUAGACUGCC", "self-cleavage": 0.06}
{"variant": "UGCCGAGCUCAACACAGCGUGGCAAAGUGGCUGUGGCAAGACUGCC", "self-cleavage": 0.03}
{"variant": "UGCGGAGCACAACACAGCGUGGCAAGGUGGCUGUGGCUAGACUGCC", "self-cleavage": 0.01}
{"variant": "UGCAGAGCUCAACUCAGCGUGGCUAAGUGGCUGUGGCUAGACUAGC", "self-cleavage": 0.04}
{"variant": "UGCGGAGCUCAACACAGCGUCUCAAAGUGGCUGUGGCUAUACUGCG", "self-cleavage": 0.04}
{"variant": "UGCUGAGCUCAACAAAGCGUGGCAAUGUGGCUGAUCCUAGACUGCC", "self-cleavage": 0.04}
{"variant": "CGCAGAGCUCAACACAGCGUGGCAAAGAGGCUGUGGCUAGACUGUC", "self-cleavage": 0.19}
{"variant": "UGCAGAGCUCAACCCAGCUUGGCAAAGUGGCUGUGGCUAGACUGCC", "self-cleavage": 0.02}
{"variant": "UGCAGAGCUCAUCACAGGGUGGCAAACUGCCUGUGGCUAGACUUCC", "self-cleavage": 0.01}
{"variant": "UGCAGAGCUCAACUCAGCGUGGCAAAGUUACUGUGGCUAGACUGCC", "self-cleavage": 0.06}
{"variant": "UGUAGAGGUCAACACAGCGUGGCGAAGUGGCUGUGGCUAGACUGCC", "self-cleavage": 0.04}
{"variant": "UGCAGAGCUCAACCCAUCACGGCAAAGUGGCUGUGGCUAGACUGCC", "self-cleavage": 0}
{"variant": "UGGAGAGCUCAACACAGCGUGGCAAAGUGGCUGUGGCUAGACUGUC", "self-cleavage": 0.06}
{"variant": "UGCAGAGAUCAACACAGCGUGGCGAAGUGGCUGUGGCUAGACUGCC", "self-cleavage": 0.17}
{"variant": "CGCAGAGCUCAACACAGCGGGGCAAACUGGCUGUGGCUAGACUGCC", "self-cleavage": 0.04}
